Measurements taken from PubChem BioAssay AID488896 (Broad Institute, 2010).
Out of some 320,000 compounds screened, about 3,100 (0.97%) were called active. The shares of active, inactive and inconclusive entries below differ from those in the screen.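 The calls were made as follows: active = mean replicate inhibition of at least 70% and a set share of replicates each scoring 70 or more; inconclusive = meets just one of the two criteria; inactive = fails both criteria.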

Molecular target: Scavenger receptor class B member 1 (Mus musculus) (UniProt Q61009)
Assay: inhibitors of SR-BI mediated HDL lipid uptake, primary screen, ldlA[mSR-BI] cells, fluorescence, single point (AID 488896);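 also: 0% = median of neutral control wells and 100% = median of positive control wells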
Conditions: ldlA[mSR-BI] CHO cells, DiI-HDL uptake fluorescence, 3 h; at 12.5 µM; active compounds read high

Chain of UniProt Q61009 (Q61009 whole entry, looked up): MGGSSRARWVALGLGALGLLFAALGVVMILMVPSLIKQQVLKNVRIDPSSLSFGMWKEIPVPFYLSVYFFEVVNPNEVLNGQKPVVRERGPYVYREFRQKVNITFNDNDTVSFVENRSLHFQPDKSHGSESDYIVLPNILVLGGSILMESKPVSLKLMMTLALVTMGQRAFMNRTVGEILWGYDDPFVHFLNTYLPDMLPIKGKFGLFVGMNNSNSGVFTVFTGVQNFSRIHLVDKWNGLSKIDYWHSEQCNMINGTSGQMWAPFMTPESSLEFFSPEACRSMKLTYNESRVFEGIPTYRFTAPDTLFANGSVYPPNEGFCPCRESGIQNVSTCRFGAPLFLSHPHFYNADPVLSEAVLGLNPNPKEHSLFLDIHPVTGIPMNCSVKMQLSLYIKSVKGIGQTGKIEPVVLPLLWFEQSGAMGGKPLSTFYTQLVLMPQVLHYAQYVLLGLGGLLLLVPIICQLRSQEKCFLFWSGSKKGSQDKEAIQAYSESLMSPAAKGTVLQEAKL

| Structure (SMILES) | inhibition |
| --- | --- |
| COc1ccc(C(=O)Nc2cccc(-c3cc4ccccc4oc3=O)c2)cc1[N+](=O)[O-] | inconclusive: 71.4% |
| COc1ccccc1NC(=O)c1c(Nc2ccccc2F)sc(C(=O)Nc2cccc(Cl)c2)c1N | active: 74.6% |
| O=C(CCCCCCC(=O)Nc1ccccc1)NO | inactive: -10% |
| CN(C)c1ccc(-c2noc(C3CCN(C(=O)Nc4ccc(Cl)cc4)CC3)n2)cc1 | inconclusive: 72.1% |
| COc1ccc(C)cc1NC(=O)NC1CCCc2ccccc21 (centres undefined) | inconclusive: 70.5% |
| Cc1cccn2cc(-c3ccc(NC(=O)Cc4ccccc4)cc3)nc12 | inconclusive: 70.6% |
| CC(C)c1ccc(/C=N/NC(=O)c2cccc(S(=O)(=O)N3CCOCC3)c2)cc1 | inconclusive: 71.2% |
| CC(=O)OCCCNc1cc(Sc2ccc(Cl)cc2)c2nonc2c1[N+](=O)[O-] | inconclusive: 71.2% |
| CN(C)S(=O)(=O)c1cc(NC(=O)c2cc(=O)c3ccccc3o2)ccc1Cl | inconclusive: 74.3% |
| CCN(CC)CCCNC(=S)N1CCN(c2nc(-c3ccc(F)cc3)cs2)CC1 | inconclusive: 77.4% |
| CC1=C(C(=O)OC2CCCCC2)C(c2ccc(C)o2)C2=C(CC(C)(C)CC2=O)N1 (centres undefined) | inactive: 16.1% |
| COc1ccc(CCNC(=O)COC(=O)CCC(=O)c2ccc(F)cc2)cc1OC | inactive: -14.7% |
| CC(=O)c1ccc(NC(=O)c2cccc(NC(=O)c3ccccc3)c2)cc1 | inconclusive: 74% |
| Cc1cc(C)n(CC(=O)NC2CCCc3c2cnn3-c2ccc(C)c(C)c2)n1 (centres undefined) | inconclusive: 72.2% |
| CC/C(=N/Nc1cccc(C)c1)c1cnnc(SC)n1 | inconclusive: 70.5% |
| CCOc1ccccc1OCCCC(=O)Nc1ccc(Cl)c(S(=O)(=O)N2CCOCC2)c1 | inconclusive: 71.8% |
| CN1C(=O)CC(C(=O)Nc2ccccc2F)SC1=Nc1ccc2c(c1)OCO2 (centres undefined) | active: 73.2% |
| Cc1ccc(-c2[nH]c3ccccc3c2C(C[N+](=O)[O-])c2ccco2)cc1 (centres undefined) | inconclusive: 85.8% |
| COc1cc(/C=N/Nc2ccccc2[N+](=O)[O-])cc(OC)c1O | active: 78.5% |
| O=C(Nc1ccc(N2CCOCC2)cc1)c1cccc(S(=O)(=O)N2CCC(Cc3ccccc3)CC2)c1 | active: 93.1% |
| Cc1cc(C)cc(N2CN=C3SCC(=O)N3C2)c1 | inconclusive: 70.7% |
| O=C(NN=Cc1ccc(O)cc1O)c1ccccc1NS(=O)(=O)c1cccs1 | active: 96.5% |
| Cc1cc(NC(=O)Nc2ccccc2)n(-c2ccccc2)n1 | inconclusive: 79.5% |
| O=[N+]([O-])c1cc([N+](=O)[O-])c(Oc2cccc3c2CCCC3)cc1NN1CCCCC1 | inconclusive: 71.6% |
